# Measurements reported in the supplement of paper PMC8728848.
# Some of the results follow.
# Legend:
# Experiment in all cases: glycan array binding signal (z-score within array); higher = stronger binding
# Conditions in all cases: glycan notation: IUPAC condensed, linker removed
# [1] = target: Gal(b1-3)GalNAc(b1-4)Gal(b1-4)Glc
# Procedure, shortened: (§1)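 Columns mapping to the same glycan were averaged after glycan names were converted to IUPAC-condensed notation. The data come from 3228 arrays in the Consortium for Functional Glycomics database, limited to those with an available protein sequence. Binding is reported as a within-array Z-score averaged across arrays of one protein sequence and across linkers.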
# [2] = target: Gal(b1-3)GalNAc(b1-4)[Neu5Ac(a2-3)]Gal(b1-4)Glc
# Procedure, shortened: as §1
# [3] = target: Gal(b1-3)GlcNAc
# Procedure, shortened: as §1
# [4] = target: Gal(b1-3)GlcNAc(a1-3)Gal(b1-4)GlcNAc
# Procedure, shortened: as §1
# [5] = target: Gal(b1-3)GlcNAc(a1-6)Gal(b1-4)GlcNAc
# Procedure, shortened: as §1
# [6] = target: Gal(b1-3)GlcNAc(b1-2)Man
# Procedure, shortened: as §1
# [7] = target: Gal(b1-3)GlcNAc(b1-2)Man(a1-3)[Gal(b1-3)GlcNAc(b1-2)Man(a1-6)]Man(b1-4)GlcNAc(b1-4)GlcNAc
# Procedure, shortened: as §1
# [8] = target: Gal(b1-3)GlcNAc(b1-2)Man(a1-3)[Gal(b1-3)GlcNAc(b1-2)Man(a1-6)]Man(b1-4)GlcNAc(b1-4)[Fuc(a1-6)]GlcNAc
# Procedure, shortened: as §1
# [9] = target: Gal(b1-3)GlcNAc(b1-2)Man(a1-3)[GlcNAc(b1-4)][Gal(b1-3)GlcNAc(b1-2)Man(a1-6)]Man(b1-4)GlcNAc(b1-4)GlcNAc
# Procedure, shortened: as §1
# [10] = target: Gal(b1-3)GlcNAc(b1-2)[Gal(b1-3)GlcNAc(b1-6)]Man(a1-6)[Gal(b1-3)GlcNAc(b1-2)Man(a1-3)]Man(b1-4)GlcNAc(b1-4)GlcNAc
# Procedure, shortened: as §1
# [11] = target: Gal(b1-3)GlcNAc(b1-3)Gal(b1-3)GlcNAc
# Procedure, shortened: as §1
# [12] = target: Gal(b1-3)GlcNAc(b1-3)Gal(b1-4)Glc
# Procedure, shortened: as §1
# [13] = target: Gal(b1-3)GlcNAc(b1-3)Gal(b1-4)GlcNAc
# Procedure, shortened: as §1
# [14] = target: Gal(b1-3)GlcNAc(b1-3)Gal(b1-4)GlcNAc(b1-2)Man(a1-3)[Gal(b1-3)GlcNAc(b1-3)Gal(b1-4)GlcNAc(b1-2)Man(a1-6)]Man(b1-4)GlcNAc(b1-4)GlcNAc
# Procedure, shortened: as §1
# [15] = target: Gal(b1-3)GlcNAc(b1-3)Gal(b1-4)GlcNAc(b1-2)[Gal(b1-3)GlcNAc(b1-3)Gal(b1-4)GlcNAc(b1-6)]Man(a1-6)[Gal(b1-3)GlcNAc(b1-3)Gal(b1-4)GlcNAc(b1-2)Man(a1-3)]Man(b1-4)GlcNAc(b1-4)[Fuc(a1-6)]GlcNAc
# Procedure, shortened: as §1
# [16] = target: Gal(b1-3)GlcNAc(b1-3)Gal(b1-4)GlcNAc(b1-3)Gal(b1-4)GlcNAc(b1-2)[Gal(b1-3)GlcNAc(b1-3)Gal(b1-4)GlcNAc(b1-3)Gal(b1-4)GlcNAc(b1-6)]Man(a1-6)[Gal(b1-3)GlcNAc(b1-3)Gal(b1-4)GlcNAc(b1-3)Gal(b1-4)GlcNAc(b1-2)Man(a1-3)]Man(b1-4)GlcNAc(b1-4)[Fuc(a1-6)]GlcNAc
# Procedure, shortened: as §1
# [17] = target: Gal(b1-3)GlcNAc(b1-3)Gal(b1-4)GlcNAc(b1-6)[Gal(b1-3)GlcNAc(b1-3)]Gal(b1-4)Glc
# Procedure, shortened: as §1
# [18] = target: Gal(b1-3)GlcNAc(b1-3)Gal(b1-4)[Fuc(a1-3)]GlcNAc
# Procedure, shortened: as §1
# [19] = target: Gal(b1-3)GlcNAc(b1-3)Gal(b1-4)[Fuc(a1-3)]GlcNAc(b1-6)[Gal(b1-3)GlcNAc(b1-3)]Gal(b1-4)Glc
# Procedure, shortened: as §1
# [20] = target: Gal(b1-3)GlcNAc(b1-3)GalNAc
# Procedure, shortened: as §1
# [21] = target: Gal(b1-3)GlcNAc(b1-6)Gal(b1-4)GlcNAc
# Procedure, shortened: as §1
# [22] = target: Gal(b1-3)GlcNAc(b1-6)GalNAc
# Procedure, shortened: as §1
# [23] = target: Gal(b1-3)GlcNAc(b1-6)[Gal(b1-3)]GalNAc
# Procedure, shortened: as §1
# [24] = target: Gal(b1-3)GlcNAc6S
# Procedure, shortened: as §1
# [25] = target: Gal(b1-3)[Fuc(a1-4)]GlcNAc
# Procedure, shortened: as §1
# [26] = target: Gal(b1-3)[Fuc(a1-4)]GlcNAc(b1-2)Man
# Procedure, shortened: as §1
# [27] = target: Gal(b1-3)[Fuc(a1-4)]GlcNAc(b1-2)Man(a1-3)[Gal(b1-3)[Fuc(a1-4)]GlcNAc(b1-2)Man(a1-6)]Man(b1-4)GlcNAc(b1-4)[Fuc(a1-6)]GlcNAc
# Procedure, shortened: as §1
# [28] = target: Gal(b1-3)[Fuc(a1-4)]GlcNAc(b1-3)Gal(b1-3)[Fuc(a1-4)]GlcNAc
# Procedure, shortened: as §1
# [29] = target: Gal(b1-3)[Fuc(a1-4)]GlcNAc(b1-3)Gal(b1-4)[Fuc(a1-3)]GlcNAc
# Procedure, shortened: as §1
# [30] = target: Gal(b1-3)[Fuc(a1-4)]GlcNAc(b1-6)GalNAc
# Procedure, shortened: as §1
# [31] = target: Gal(b1-3)[GlcNAc(b1-6)]GalNAc
# Procedure, shortened: as §1
# [32] = target: Gal(b1-3)[Neu5Ac(a2-6)]GalNAc
# Procedure, shortened: as §1
# [33] = target: Gal(b1-3)[Neu5Ac(a2-6)]GlcNAc(b1-4)Gal(b1-4)Glc
# Procedure, shortened: as §1
# [34] = target: Gal(b1-3)[Neu5Ac(b2-6)]GalNAc
# Procedure, shortened: as §1
# [35] = target: Gal(b1-4)Gal
# Procedure, shortened: as §1
# [36] = target: Gal(b1-4)GalNAc(a1-3)[Fuc(a1-2)]Gal(b1-4)GlcNAc
# Procedure, shortened: as §1
# [37] = target: Gal(b1-4)GalNAc(b1-3)[Fuc(a1-2)]Gal(b1-4)GlcNAc
# Procedure, shortened: as §1
# [38] = target: Gal(b1-4)Glc
# Procedure, shortened: as §1
binder,measurement,setting,value
CPA (Cicer arietinum) (protein) MAFSYLNLVLVTLTTLFFLQTTKVKSQKSVSFHITNFTISRPSITLQGTAEFLPNVLLLNDIEHPVFVVGRALYSKPITLWNNKTGKVASFVTSFTFDVQDLKKTVPGHGLVFFLAPSGSEIPFSSDGGNLGVVDGKNAFNRFVGVEFDNFVNSWDPKYSHVGINVNSLISTKTVKWNRVSGELVKVSIVYDSVSTTLTVIVTYKNGQISILSQLVDLKAVLPDTVNIGFSASTTLVSPRQLHNIHSWSFTSTFET,glycan array binding signal (z-score),[1],-0.151
same,glycan array binding signal (z-score),[2],-0.46
same,glycan array binding signal (z-score),[3],0.157
same,glycan array binding signal (z-score),[4],-0.462
same,glycan array binding signal (z-score),[5],-0.701
same,glycan array binding signal (z-score),[6],0.192
same,glycan array binding signal (z-score),[7],1.19
same,glycan array binding signal (z-score),[8],-0.606
same,glycan array binding signal (z-score),[9],1.87
same,glycan array binding signal (z-score),[10],-0.14
same,glycan array binding signal (z-score),[11],0.038
same,glycan array binding signal (z-score),[12],-0.7
same,glycan array binding signal (z-score),[13],-0.695
same,glycan array binding signal (z-score),[14],-0.238
same,glycan array binding signal (z-score),[15],1.68
same,glycan array binding signal (z-score),[16],3.59
same,glycan array binding signal (z-score),[17],-0.028
same,glycan array binding signal (z-score),[18],-0.617
same,glycan array binding signal (z-score),[19],-0.558
same,glycan array binding signal (z-score),[20],0.028
same,glycan array binding signal (z-score),[21],-0.751
same,glycan array binding signal (z-score),[22],-0.396
same,glycan array binding signal (z-score),[23],-0.185
same,glycan array binding signal (z-score),[24],-0.419
same,glycan array binding signal (z-score),[25],-0.282
same,glycan array binding signal (z-score),[26],0.564
same,glycan array binding signal (z-score),[27],0.518
same,glycan array binding signal (z-score),[28],-0.701
same,glycan array binding signal (z-score),[29],-0.459
same,glycan array binding signal (z-score),[30],-0.13
same,glycan array binding signal (z-score),[31],-0.164
same,glycan array binding signal (z-score),[32],-0.522
same,glycan array binding signal (z-score),[33],0.118
same,glycan array binding signal (z-score),[34],-0.733
same,glycan array binding signal (z-score),[35],-0.299
same,glycan array binding signal (z-score),[36],-0.399
same,glycan array binding signal (z-score),[37],-0.397
same,glycan array binding signal (z-score),[38],-0.475
